# Measurements taken from the supplement of paper PMC11417369.
# ± gives the standard deviation of the averaged measurements. The list shows a part of the results.
# Tested on: PfAP2-I AP2 domain 3 (GST-tagged)
# Assay: gcPBM binding intensity (ln(normalized median fluorescence intensity)); higher = stronger DNA binding
# Method in brief: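 Plasmodium falciparum DNA-binding domains carrying a GST tag were expressed in E. coli and applied for 1 h, at about 25 μg on average, to an Agilent 4 × 180k array. The array held primer-extended double-stranded 36-bp intergenic genomic probes together with negative controls, and binding took place in 1× PBS with 1% milk, 0.2 mg/ml BSA, 0.5% salmon testes DNA and 0.03% Triton X-100. An Alexa488 anti-GST antibody detected bound protein, and the array was scanned at 488 nm. Binding intensity is taken as the highest Masliner-normalised natural-log median intensity across replicate spots of either probe orientation.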
row,Sequence,gcPBM binding intensity (ln)
1,ATATATATATATGTATGTATATATATATGTTTGATT [XGTACX_negctrl_site62],9.48 ± 0.41
2,TTGTTTATGTGAGAAGTGCATTTTTTCGTTCATGTA,9.07 ± 0.42
3,AAGTTTTATATTTATTAAATTTTTTTTTTTCCTTTT [XGTACX_negctrl_site184],7.18 ± 0.67
4,TTTTTTATTTTGTTGAAGCAATGAAAATGAATGAAA [TGCATGCA_negctrl_site495],8.02 ± 0.28
5,ATATGTTTAAAAATATGTACGTATTATATATTCTAT [XGTACX_site1358],7.94 ± 0.3
6,ATGTAAGTATAAAATGTGCGCATTGGGAATGAGGAC,9.22 ± 0.43
7,TGTAGATATTATATATGTACGCATATGAAATATATA [XGTACX_site1586],7.93 ± 0.014
8,GTAATATCAATATAAAGTACACACTATAGTATGTAT [XGTACX_site4714],7.66 ± 0.49
9,TAATTATATAAATATTGTACAAAAAAAATATATATA [XGTACX_site3137],7.86 ± 0.57
10,AAAATATATAATATAACACACATATATTCTATATGG [CACACA_site4044],7.59 ± 0.32
11,TTCAAAATATATATTTGTACATATAGGATCTTTTTC [XGTACX_site4500],7.62 ± 0.43
12,TCTTTTTTTTTTTTTTTTTTTTTTTTTTTTTTTTTT [GTGCAC_negctrl_site18],10.1 ± 0.25
13,ATAAAACCAACATAGAGTACAGATCGACTATGTTTC [XGTACX_site4329],7.42 ± 0.57
14,TTTTCTTTTTAAATTACACACACATATATATATGTA [CACACA_site9172],7.74 ± 0.52
15,ATTTTAATGACATATACACACAAAGGTTCATAACAA [CACACA_site5664],7.7 ± 0.54
16,TTAACGCTTATTTTTTGTACTTATTTTATTTTAAAT [XGTACX_site3977],8.16 ± 0.54
17,ACTCTATAATAAAATACACACAAGACTATCTAATAT [CACACA_site1796],7.81 ± 0.44
18,CAACATTAATATAAAGCACACATATATATAATATAT [CACACA_site8064],9.63 ± 0.56
19,ATATATACATATAATTGTACTTGTGTTGTTTTTCTT [XGTACX_site1870],7.85 ± 0.51
20,TTTTATTTATAATATATACACACTAACATTATTTAT [CACACA_site1284],8.03 ± 0.042
21,GAATATTTATCATGGGGTACCTTAAAAAAGGGAAAA [XGTACX_site298],7.89 ± 0.34
22,ATATCTTAAATTATTTGTACATATATATATATATAT [XGTACX_site8034],9.74 ± 0.2
23,AATATAAACCCAAACACACACATATATATATATATA [CACACA_site268],9.4 ± 0.37
24,TTTTTTTTTTTGAGGAGGACACAAAAATATGCTACC [XGTACX_site756],8.32 ± 0.53
25,AATATAAAAATATAAAAACACACGTAAAAAAATTTA [CACACA_site3399],7.63 ± 0.67
